# Paper PMC12775950
# B1: GPRC5B: N30S (protein)
# parent chain: MFVASERKMRAHQVLTFLLLFVITSVASENASTSRGCGLDLLPQYVSLCDLDAIWGIVVEAVAGAGALITLLLMLILLVRLPFIKEKEKKSPVGLHFLFLLGTLGLFGLTFAFIIQEDETICSVRRFLWGVLFALCFSCLLSQAWRVRRLVRHGTGPAGWQLVGLALCLMLVQVIIAVEWLVLTVLRDTRPACAYEPMDFVMALIYDMVLLVVTLGLALFTLCGKFKRWKLNGAFLLITAFLSVLIWVAWMTMYLFGNVKLQQGDAWNDPTLAITLAASGWVFVIFHAIPEIHCTLLPALQENTPNYFDTSQPRMRETAFEEDVQLPRAYMENKAFSMDEHNAALRTAGFPNGSLGKRPSGSLGKRPSAPFRSNVYQPTEMAVVLNGGTIPTAPPSHTGRHLW
# Assay: extracellular HiBiT surface luminescence, HEK293T
# Conditions: glycan lost; control: wild type
protein,measurement,value
B1,localisation_or_trafficking,no change
